The list shows a part of the results.
Legend:
Assay in all cases: glycan array binding signal (z-score within array); higher = stronger binding
Details in all cases: glycan notation: IUPAC condensed, linker removed; mutation: R74S
[1] = molecular target: Man(a1-2)Man(a1-3)[Man(a1-2)Man(a1-6)]Man
How it was run: (§1)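 The binding signal is a Z-score computed within each array and averaged over linkers. Arrays of the same protein sequence at different concentrations or buffers were also averaged together. Data originate from 3228 arrays in the Consortium for Functional Glycomics database, kept only where the protein sequence was available.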

[2] = molecular target: Man(a1-2)Man(a1-3)[Man(a1-2)Man(a1-6)]Man(a1-6)[Man(a1-2)Man(a1-2)Man(a1-3)]Man
How it was run: as §1

[3] = molecular target: Man(a1-2)Man(a1-3)[Man(a1-2)Man(a1-6)]Man(a1-6)[Man(a1-2)Man(a1-2)Man(a1-3)]Man(b1-4)GlcNAc(b1-4)GlcNAc
How it was run: as §1

[4] = molecular target: Man(a1-2)Man(a1-3)[Man(a1-6)]Man(a1-6)[Man(a1-2)Man(a1-3)]Man(b1-4)GlcNAc(b1-4)GlcNAc
How it was run: as §1

[5] = molecular target: Man(a1-2)Man(a1-6)[Man(a1-3)]Man(a1-6)[Man(a1-2)Man(a1-2)Man(a1-3)]Man
How it was run: as §1

[6] = molecular target: Man(a1-2)Man(a1-6)[Man(a1-3)]Man(a1-6)[Man(a1-2)Man(a1-2)Man(a1-3)]Man(b1-4)GlcNAc(b1-4)GlcNAc
How it was run: as §1

Man(a1-3)[Man(a1-6)]Man = molecular target: Man(a1-3)[Man(a1-6)]Man
How it was run: as §1

[7] = molecular target: Man(a1-3)[Man(a1-6)]Man(a1-6)[Man(a1-2)Man(a1-3)]Man(b1-4)GlcNAc(b1-4)GlcNAc
How it was run: as §1

[8] = molecular target: Man(a1-3)[Man(a1-6)]Man(a1-6)[Man(a1-3)]Man
How it was run: as §1

[9] = molecular target: Man(a1-3)[Man(a1-6)]Man(a1-6)[Man(a1-3)]Man(b1-4)GlcNAc(b1-4)GlcNAc
How it was run: as §1

[10] = molecular target: Man(a1-3)[Man(a1-6)]Man(b1-4)GlcNAc(b1-4)GlcNAc
How it was run: as §1

[11] = molecular target: Man(a1-3)[Man(a1-6)]Man(b1-4)GlcNAc(b1-4)[Fuc(a1-6)]GlcNAc
How it was run: as §1

Man(a1-6)Man = molecular target: Man(a1-6)Man
How it was run: as §1

Man(b1-4)GlcNAc = molecular target: Man(b1-4)GlcNAc
How it was run: as §1

MurNAc(b1-4)GlcNAc = molecular target: MurNAc(b1-4)GlcNAc
How it was run: as §1

Neu5Ac(a2-3)Gal = molecular target: Neu5Ac(a2-3)Gal
How it was run: as §1

[12] = molecular target: Neu5Ac(a2-3)Gal(b1-3)GalNAc
How it was run: as §1

[13] = molecular target: Neu5Ac(a2-3)Gal(b1-3)GalNAc(b1-3)Gal(a1-4)Gal(b1-4)Glc
How it was run: as §1

[14] = molecular target: Neu5Ac(a2-3)Gal(b1-3)GalNAc(b1-4)Gal(b1-4)Glc
How it was run: as §1

[15] = molecular target: Neu5Ac(a2-3)Gal(b1-3)GalNAc(b1-4)[Neu5Ac(a2-3)]Gal(b1-4)Glc
How it was run: as §1

[16] = molecular target: Neu5Ac(a2-3)Gal(b1-3)GalNAc(b1-4)[Neu5Ac(a2-8)Neu5Ac(a2-3)]Gal(b1-4)Glc
How it was run: as §1

[17] = molecular target: Neu5Ac(a2-3)Gal(b1-3)GalNAc6S
How it was run: as §1

[18] = molecular target: Neu5Ac(a2-3)Gal(b1-3)GlcNAc
How it was run: as §1

[19] = molecular target: Neu5Ac(a2-3)Gal(b1-3)GlcNAc(b1-2)Man
How it was run: as §1

[20] = molecular target: Neu5Ac(a2-3)Gal(b1-3)GlcNAc(b1-2)Man(a1-3)[GlcNAc(b1-4)][Neu5Ac(a2-3)Gal(b1-3)GlcNAc(b1-2)Man(a1-6)]Man(b1-4)GlcNAc(b1-4)GlcNAc
How it was run: as §1

[21] = molecular target: Neu5Ac(a2-3)Gal(b1-3)GlcNAc(b1-2)Man(a1-3)[Neu5Ac(a2-3)Gal(b1-3)GlcNAc(b1-2)Man(a1-6)]Man(b1-4)GlcNAc(b1-4)GlcNAc
How it was run: as §1

[22] = molecular target: Neu5Ac(a2-3)Gal(b1-3)GlcNAc(b1-2)[Neu5Ac(a2-3)Gal(b1-3)GlcNAc(b1-4)]Man(a1-6)[Neu5Ac(a2-3)Gal(b1-3)GlcNAc(b1-2)Man(a1-3)]Man(b1-4)GlcNAc(b1-4)GlcNAc
How it was run: as §1

[23] = molecular target: Neu5Ac(a2-3)Gal(b1-3)GlcNAc(b1-3)Gal(b1-3)GlcNAc
How it was run: as §1

[24] = molecular target: Neu5Ac(a2-3)Gal(b1-3)GlcNAc(b1-3)Gal(b1-4)GlcNAc
How it was run: as §1

[25] = molecular target: Neu5Ac(a2-3)Gal(b1-3)GlcNAc(b1-3)GalNAc
How it was run: as §1

[26] = molecular target: Neu5Ac(a2-3)Gal(b1-3)GlcNAc(b1-6)GalNAc
How it was run: as §1

[27] = molecular target: Neu5Ac(a2-3)Gal(b1-3)GlcNAc6S
How it was run: as §1

[28] = molecular target: Neu5Ac(a2-3)Gal(b1-3)[Fuc(a1-4)]GlcNAc
How it was run: as §1

[29] = molecular target: Neu5Ac(a2-3)Gal(b1-3)[Fuc(a1-4)]GlcNAc(b1-3)Gal(b1-3)[Fuc(a1-4)]GlcNAc
How it was run: as §1

[30] = molecular target: Neu5Ac(a2-3)Gal(b1-3)[Fuc(a1-4)]GlcNAc(b1-3)Gal(b1-4)[Fuc(a1-3)]GlcNAc
How it was run: as §1

[31] = molecular target: Neu5Ac(a2-3)Gal(b1-3)[GlcNAc(b1-6)]GalNAc
How it was run: as §1

[32] = molecular target: Neu5Ac(a2-3)Gal(b1-3)[Neu5Ac(a2-6)]GalNAc
How it was run: as §1

[33] = molecular target: Neu5Ac(a2-3)Gal(b1-3)[Neu5Ac(a2-6)]GlcNAc(b1-3)[Fuc(a1-3)[Gal(b1-4)]GlcNAc(b1-6)]Gal(b1-4)Glc
How it was run: as §1

B1: Gal 7 (Homo sapiens) (protein)
chain: MSNVPHKSSLPEGIRPGTVLRIRGLVPPNASRFHVNLLCGEEGGSDAALHFNPRLDTSEVVFNSKEGGSWGREESGPGVPFGRGQPFEVLIIASDDGFKAVVGDAQYHHFRHRLPLARVRLVEVGGDVQLDSVRIF
[1]
  glycan array binding signal (z-score): -0.499
[2]
  glycan array binding signal (z-score): -0.486
[3]
  glycan array binding signal (z-score): -0.459
[4]
  glycan array binding signal (z-score): 0.255
[5]
  glycan array binding signal (z-score): -0.26
[6]
  glycan array binding signal (z-score): -0.537
Man(a1-3)[Man(a1-6)]Man
  glycan array binding signal (z-score): -0.223
[7]
  glycan array binding signal (z-score): -0.14
[8]
  glycan array binding signal (z-score): 1.78
[9]
  glycan array binding signal (z-score): -0.487
[10]
  glycan array binding signal (z-score): -0.307
[11]
  glycan array binding signal (z-score): -0.238
Man(a1-6)Man
  glycan array binding signal (z-score): 0.827
Man(b1-4)GlcNAc
  glycan array binding signal (z-score): 0.24
MurNAc(b1-4)GlcNAc
  glycan array binding signal (z-score): -0.539
Neu5Ac(a2-3)Gal
  glycan array binding signal (z-score): -0.449
[12]
  glycan array binding signal (z-score): -0.316
[13]
  glycan array binding signal (z-score): -0.238
[14]
  glycan array binding signal (z-score): -0.29
[15]
  glycan array binding signal (z-score): -0.265
[16]
  glycan array binding signal (z-score): -0.359
[17]
  glycan array binding signal (z-score): -0.673
[18]
  glycan array binding signal (z-score): -0.228
[19]
  glycan array binding signal (z-score): -0.105
[20]
  glycan array binding signal (z-score): -0.228
[21]
  glycan array binding signal (z-score): 0.398
[22]
  glycan array binding signal (z-score): 0.541
[23]
  glycan array binding signal (z-score): -0.625
[24]
  glycan array binding signal (z-score): -0.501
[25]
  glycan array binding signal (z-score): -0.585
[26]
  glycan array binding signal (z-score): -0.428
[27]
  glycan array binding signal (z-score): -0.219
[28]
  glycan array binding signal (z-score): -0.561
[29]
  glycan array binding signal (z-score): 0.209
[30]
  glycan array binding signal (z-score): 0.456
[31]
  glycan array binding signal (z-score): -0.436
[32]
  glycan array binding signal (z-score): -0.412
[33]
  glycan array binding signal (z-score): 0.154
